# Source: publication PMC9527316
# Protein sequences, listed by entry. Tags and fused reporters are not part of them.
# UniProt P07355: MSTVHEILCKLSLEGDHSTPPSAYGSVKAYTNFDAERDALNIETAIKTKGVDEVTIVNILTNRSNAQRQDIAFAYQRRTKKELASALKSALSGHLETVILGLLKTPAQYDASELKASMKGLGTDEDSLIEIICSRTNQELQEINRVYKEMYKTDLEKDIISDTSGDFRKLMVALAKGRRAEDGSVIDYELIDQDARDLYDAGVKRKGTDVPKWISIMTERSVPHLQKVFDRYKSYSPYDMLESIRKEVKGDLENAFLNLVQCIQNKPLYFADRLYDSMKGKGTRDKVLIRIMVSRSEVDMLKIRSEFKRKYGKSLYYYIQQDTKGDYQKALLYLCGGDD
# These are yes or no findings as the source states them, for the method shown. Binding seen in cells or lysates may run through a third protein. Some binding calls cover weakened binding; strength is not graded here. Where a sequence is shown, tags or fusion partners need not be part of it.
# T1: YFP-S100A11 (UniProt P31949)
# T1 sequence: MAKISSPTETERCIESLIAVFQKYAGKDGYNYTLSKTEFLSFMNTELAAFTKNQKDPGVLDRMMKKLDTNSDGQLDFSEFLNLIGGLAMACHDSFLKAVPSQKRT
# T2: YFP-S100A11 ΔCTM (UniProt P31949)
# T2 sequence: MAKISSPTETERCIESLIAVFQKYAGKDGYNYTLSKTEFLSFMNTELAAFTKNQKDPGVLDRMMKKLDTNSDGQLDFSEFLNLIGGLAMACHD
# T3: YFP-S100A11 CM (UniProt P31949)
# T3 sequence: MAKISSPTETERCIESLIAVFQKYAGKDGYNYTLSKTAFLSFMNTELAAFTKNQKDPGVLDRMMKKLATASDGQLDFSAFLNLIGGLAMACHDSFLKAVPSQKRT
# Assays:
# YFP-S100A11 [1] = molecular target: T1, YFP-S100A11; test: co-IP; lysates of S100A11-KO EA.hy926 cells transfected with empty GFP vector, YFP-S100A11, YFP-S100A11 ΔCTM or YFP-S100A11 CM; GFP Selector beads; 2 mM Ca2+; endogenous ANXA1 and ANXA2 detected by immunoblot
# YFP-S100A11 ΔCTM = molecular target: T2, YFP-S100A11 ΔCTM; test: as above
# YFP-S100A11 CM = molecular target: T3, YFP-S100A11 CM; test: as above
# YFP-S100A11 [2] = molecular target: T1, YFP-S100A11; test: co-IP; lysates of HUVEC expressing YFP-S100A11 (GFP or non-transfected as controls); GFP Selector beads; 2 mM CaCl2 in the wash buffer (250 mM sucrose, 20 mM HEPES pH 7.5, 0.5 mM EDTA), 1 h at 4°C; endogenous partners detected by immunoblot
# YFP-S100A11 [3] = molecular target: T1, YFP-S100A11; test: as above; remark: listed apart in the source
binding (YFP-S100A11 [1]),binding (YFP-S100A11 ΔCTM),binding (YFP-S100A11 CM),binding (YFP-S100A11 [2]),binding (YFP-S100A11 [3]),Molecule
binds,no binding,no binding,binds,,annexin A2 (ANXA2) (from UniProt P07355 1-339)
,,,,no binding,"annexin A6 (ANXA6) (protein, UniProt P08133 1-673) MAKPAQGAKYRGSIHDFPGFDPNQDAEALYTAMKGFGSDKEAILDIITSRSNRQRQEVCQSYKSLYGKDLIADLKYELTGKFERLIVGLMRPPAYCDAKEIKDAISGIGTDEKCLIEILASRTNEQMHQLVAAYKDAYERDLEADIIGDTSGHFQKMLVVLLQGTREEDDVVSEDLVQQDVQDLYEAGELKWGTDEAQFIYILGNRSKQHLRLVFDEYLKTTGKPIEASIRGELSGDFEKLMLAVVKCIRSTPEYFAERLFKAMKGLGTRDNTLIRIMVSRSELDMLDIREIFRTKYEKSLYSMIKNDTSGEYKKTLLKLSGGDDDAAGQFFPEAAQVAYQMWELSAVARVELKGTVRPANDFNPDADAKALRKAMKGLGTDEDTIIDIITHRSNVQRQQIRQTFKSHFGRDLMTDLKSEISGDLARLILGLMMPPAHYDAKQLKKAMEGAGTDEKALIEILATRTNAEIRAINEAYKEDYHKSLEDALSSDTSGHFRRILISLATGHREEGGENLDQAREDAQVAAEILEIADTPSGDKTSLETRFMTILCTRSYPHLRRVFQEFIKMTNYDVEHTIKKEMSGDVRDAFVAIVQSVKNKPLFFADKLYKSMKGAGTDEKTLTRIMVSRSEIDLLNIRREFIEKYDKSLHQAIEGDTSGDFLKALLALCGGED"
,,,,binds weakly,"extended synaptotagmin 1 (E-Syt1) (protein, UniProt Q9BSJ8 1-1104) MERSPGEGPSPSPMDQPSAPSDPTDQPPAAHAKPDPGSGGQPAGPGAAGEALAVLTSFGRRLLVLIPVYLAGAVGLSVGFVLFGLALYLGWRRVRDEKERSLRAARQLLDDEEQLTAKTLYMSHRELPAWVSFPDVEKAEWLNKIVAQVWPFLGQYMEKLLAETVAPAVRGSNPHLQTFTFTRVELGEKPLRIIGVKVHPGQRKEQILLDLNISYVGDVQIDVEVKKYFCKAGVKGMQLHGVLRVILEPLIGDLPFVGAVSMFFIRRPTLDINWTGMTNLLDIPGLSSLSDTMIMDSIAAFLVLPNRLLVPLVPDLQDVAQLRSPLPRGIIRIHLLAARGLSSKDKYVKGLIEGKSDPYALVRLGTQTFCSRVIDEELNPQWGETYEVMVHEVPGQEIEVEVFDKDPDKDDFLGRMKLDVGKVLQASVLDDWFPLQGGQGQVHLRLEWLSLLSDAEKLEQVLQWNWGVSSRPDPPSAAILVVYLDRAQDLPLKKGNKEPNPMVQLSIQDVTQESKAVYSTNCPVWEEAFRFFLQDPQSQELDVQVKDDSRALTLGALTLPLARLLTAPELILDQWFQLSSSGPNSRLYMKLVMRILYLDSSEICFPTVPGCPGAWDVDSENPQRGSSVDAPPRPCHTTPDSQFGTEHVLRIHVLEAQDLIAKDRFLGGLVKGKSDPYVKLKLAGRSFRSHVVREDLNPRWNEVFEVIVTSVPGQELEVEVFDKDLDKDDFLGRCKVRLTTVLNSGFLDEWLTLEDVPSGRLHLRLERLTPRPTAAELEEVLQVNSLIQTQKSAELAAALLSIYMERAEDLPLRKGTKHLSPYATLTVGDSSHKTKTISQTSAPVWDESASFLIRKPHTESLELQVRGEGTGVLGSLSLPLSELLVADQLCLDRWFTLSSGQGQVLLRAQLGILVSQHSGVEAHSHSYSHSSSSLSEEPELSGGPPHITSSAPELRQRLTHVDSPLEAPAGPLGQVKLTLWYYSEERKLVSIVHGCRSLRQNGRDPPDPYVSLLLLPDKNRGTKRRTSQKKRTLSPEFNERFEWELPLDEAQRRKLDVSVKSNSSFMSRERELLGKVQLDLAETDLSQGVARWYDLMDNKDKGSS"
